# Results published in patent publication US7635694B2, “Cyclobutenedione-containing compounds as inhibitors of hepatitis C virus NS3 serine protease” (Schering Corporation, priority 2004, dated 2009).
# Target: Recombinant heterodimeric HCV NS3/NS4A protease (strain 1a) (Hepatitis C virus genotype 1a, UniProt P27958)
# Assay: Spectrophotometric assay for HCV protease inhibitory activity
# Type: biochemical
# Conditions: chromogenic ester substrate, 30° C., pH 6.5, read-out: Ki*
# Description: Assay for HCV Protease Inhibitory Activity:
# Spectrophotometric Assay: Spectrophotometric assay for the HCV serine protease can be performed on the inventive compounds by following the procedure described by R. Zhang et al, Analytical Biochemistry, 270 (1999) 268-275, the disclosure of which is incorporated herein by reference. The assay based on the proteolysis of chromogenic ester substrates is suitable for the continuous monitoring of HCV NS3 protease activity. The substrates are derived from the P side of the NS5A-NS5B junction sequence (Ac-DTEDWX(Nva), where X=A or P) whose C-terminal carboxyl groups are esterified with one of four different chromophoric alcohols (3- or 4-nitrophenol, 7-hydroxy-4-methyl-coumarin, or 4-phenylazophenol). Illustrated below are the synthesis, characterization and application of these novel spectrophotometric ester substrates to high throughput screening and detailed kinetic evaluation of HCV NS3 protease inhibitors.
# Protein concentrations are determined by the Biorad dye method using recombinant HCV protease standards previously quantified by amino acid analysis. Prior to assay initiation, the enzyme storage buffer (50 mM sodium phosphate pH 8.0, 300 mM NaCl, 10% glycerol, 0.05% lauryl maltoside and 10 mM DTT) is exchanged for the assay buffer (25 mM MOPS pH 6.5, 300 mM NaCl, 10% glycerol, 0.05% lauryl maltoside, 5 μM EDTA and 5 μM DTT) utilizing a Biorad Bio-Spin P-6 prepacked column.
# Spectra of Substrates and Products: Spectra of substrates and the corresponding chromophore products are obtained in the pH 6.5 assay buffer. Extinction coefficients are determined at the optimal off-peak wavelength in 1-cm cuvettes (340 nm for 3-Np and HMC, 370 nm for PAP and 400 nm for 4-Np) using multiple dilutions. The optimal off-peak wavelength is defined as that wavelength yielding the maximum fractional difference in absorbance between substrate and product (product OD−substrate OD)/substrate OD).
# Protease Assay: HCV protease assays are performed at 30° C. using a 200 μl reaction mix in a 96-well microtiter plate. Assay buffer conditions (25 mM MOPS pH 6.5, 300 mM NaCl, 10% glycerol, 0.05% lauryl maltoside, 5 μM EDTA and 5 μM DTT) are optimized for the NS3/NS4A heterodimer (D. L. Sali et al, ibid.)). Typically, 150 μl mixtures of buffer, substrate and inhibitor are placed in wells (final concentration of DMSO≦4% v/v) and allowed to preincubate at 30° C. for approximately 3 minutes. Fifty μls of prewarmed protease (12 nM, 30° C.) in assay buffer, is then used to initiate the reaction (final volume 200 μl).The plates are monitored over the length of the assay (60 minutes) for change in absorbance at the appropriate wavelength (340 nm for 3-Np and HMC, 370 nm for PAP, and 400 nm for 4-Np) using a Spectromax Plus microtiter plate reader equipped with a monochrometer (acceptable results can be obtained with plate readers that utilize cutoff filters). Proteolytic cleavage of the ester linkage between the Nva and the chromophore is monitored at the appropriate wavelength against a no enzyme blank as a control for non-enzymatic hydrolysis. The evaluation of substrate kinetic parameters is performed over a 30-fold substrate concentration range (˜6-200 μM). Initial velocities are determined using linear regression and kinetic constants are obtained by fitting the data to the Michaelis-Menten equation using non-linear regression analysis (Mac Curve Fit 1.1, K. Raner). Turnover numbers (kcat) are calculated assuming the enzyme is fully active.
row,Structure (SMILES),Ki [µM]
1,C#CCCC(NC(=O)[C@@H]1[C@@H]2[C@H](CN1C(=O)[C@@H](NC(=O)N[C@H](CN(C)c1c(C(C)(C)C)c(=O)c1=O)C(C)(C)C)C1(C)CCCCC1)C2(C)C)C(=O)C(=O)NC1CC1 (stereo partly shown) [drawing 246],0.0026
2,C=CCNC(=O)C(=O)C(CCC(F)(F)F)NC(=O)[C@@H]1[C@@H]2[C@H](CN1C(=O)[C@@H](NC(=O)N[C@H](CN(C)c1c(C(C)(C)C)c(=O)c1=O)C(C)(C)C)C1(C)CCCCC1)C2(C)C (stereo partly shown) [drawing 253],0.006
3,C=CCNC(=O)C(=O)C(CCC)NC(=O)[C@@H]1[C@@H]2[C@H](CN1C(=O)[C@@H](NC(=O)N[C@H](CN(C)c1c(C3CC3)c(=O)c1=O)C(C)(C)C)C1CCCCC1)C2(C)C (stereo partly shown) [drawing 248],0.0027
4,C#CCCC(NC(=O)[C@@H]1[C@@H]2[C@H](CN1C(=O)[C@@H](NC(=O)N[C@H](CN(C)c1c(C3CC3)c(=O)c1=O)C(C)(C)C)C1CCCCC1)C2(C)C)C(=O)C(=O)NCC=C (stereo partly shown) [drawing 244],0.0019
5,C=CCNC(=O)C(=O)C(CCC)NC(=O)[C@@H]1[C@@H]2[C@H](CN1C(=O)[C@@H](NC(=O)N[C@H](CN(C)c1c(C3(C)CC3)c(=O)c1=O)C(C)(C)C)C1CCCCC1)C2(C)C (stereo partly shown) [drawing 255],0.012
6,C=CCNC(=O)C(=O)C(CCC)NC(=O)[C@@H]1[C@@H]2[C@H](CN1C(=O)[C@@H](NC(=O)N[C@H](CN(C)c1c(C(C)(C)C)c(=O)c1=O)C(C)(C)C)C1(C)CCCCC1)C2(C)C (stereo partly shown) [drawing 252],0.0054
7,CN(C[C@@H](NC(=O)N[C@H](C(=O)N1C[C@H]2[C@@H]([C@H]1C(=O)NC(CCC(F)(F)F)C(=O)C(=O)NC1CC1)C2(C)C)C1(C)CCCCC1)C(C)(C)C)c1c(C(C)(C)C)c(=O)c1=O (stereo partly shown) [drawing 250],0.004

# Same assay, conditions: chromogenic ester substrate, 30° C., pH 6.5, read-out: Ki* Range
row,Structure (SMILES),Ki [µM]
1,C#CCCC(NC(=O)[C@@H]1[C@@H]2[C@H](CN1C(=O)[C@@H](NC(=O)N[C@H](CNc1c(N(C)C)c(=O)c1=O)C(C)(C)C)C(C)(C)C)C2(C)C)C(=O)C(=O)NCC=C (stereo partly shown) [compound 127],≤ 0.075
2,C#CCCC(NC(=O)[C@@H]1[C@@H]2[C@H](CN1C(=O)[C@@H](NC(=O)N[C@H](CN(C)c1c(N(C)C)c(=O)c1=O)C1CCCCC1)C1CCCCC1)C2(C)C)C(=O)C(=O)NCC=C (stereo partly shown) [compound 133],≤ 0.075
3,CN(C[C@@H](NC(=O)N[C@H](C(=O)N1C[C@H]2[C@@H]([C@H]1C(=O)NC(CC1CC1)C(=O)C(N)=O)C2(C)C)C(C)(C)C)C(C)(C)C)c1c(N(C)c2ccccc2)c(=O)c1=O (stereo partly shown) [compound 108],≤ 0.075
4,C=CCNC(=O)C(=O)C(CCC)NC(=O)[C@@H]1[C@@H]2[C@H](CN1C(=O)[C@@H](NC(=O)N[C@H](CN(C)c1c(C3CC3)c(=O)c1=O)C(C)(C)C)C1CCCCC1)C2(C)C (stereo partly shown) [compound 105],≤ 0.075
5,C=CCNC(=O)C(=O)C(CCC)NC(=O)[C@@H]1[C@@H]2[C@H](CN1C(=O)[C@@H](NC(=O)N[C@H](CN(C)c1c(C)c(=O)c1=O)C(C)(C)C)C1CCCCC1)C2(C)C (stereo partly shown) [compound 146],≤ 0.075
6,CN(C)c1c(N(C)C[C@@H](NC(=O)N[C@H](C(=O)N2C[C@H]3[C@@H]([C@H]2C(=O)NC(CC2CC2)C(=O)C(N)=O)C3(C)C)C(C)(C)C)C2CCCCC2)c(=O)c1=O (stereo partly shown) [compound 100],≤ 0.075
7,C=CCNC(=O)C(=O)C(CCC)NC(=O)[C@@H]1[C@@H]2[C@H](CN1C(=O)[C@@H](NC(=O)N[C@H](CNc1c(C3CC3)c(=O)c1=O)C(C)(C)C)C(C)(C)C)C2(C)C (stereo partly shown) [compound 134],≤ 0.075
8,C=CCNC(=O)C(=O)C(CCC)NC(=O)[C@@H]1[C@@H]2[C@H](CN1C(=O)[C@@H](NC(=O)N[C@H](CN(C)c1c(C3CC3)c(=O)c1=O)C(C)(C)C)C(C)(C)C)C2(C)C (stereo partly shown) [compound 125],≤ 0.075
9,C=CCNC(=O)C(=O)C(CCC)NC(=O)[C@@H]1[C@@H]2[C@H](CN1C(=O)[C@@H](NC(=O)N[C@H](CNc1c(C(C)(C)C)c(=O)c1=O)C(C)(C)C)C(C)(C)C)C2(C)C (stereo partly shown) [compound 137],≤ 0.075
10,Cc1c(N(C)C[C@@H](NC(=O)N[C@H](C(=O)N2C[C@H]3[C@@H]([C@H]2C(=O)NC(CC2CC2)C(=O)C(N)=O)C3(C)C)C(C)(C)C)C(C)(C)C)c(=O)c1=O (stereo partly shown) [compound 131],≤ 0.075
11,CC(C)c1c(N(C)C[C@@H](NC(=O)N[C@H](C(=O)N2C[C@H]3[C@@H]([C@H]2C(=O)NC(CC2CC2)C(=O)C(N)=O)C3(C)C)C(C)(C)C)C(C)(C)C)c(=O)c1=O (stereo partly shown) [compound 130],≤ 0.075
12,C=CCNC(=O)C(=O)C(CCC)NC(=O)[C@@H]1[C@@H]2[C@H](CN1C(=O)[C@@H](NC(=O)N[C@H](CN(C)c1c(C(C)C)c(=O)c1=O)C(C)(C)C)C1CCCCC1)C2(C)C (stereo partly shown) [compound 116],≤ 0.075
13,C#CCCC(NC(=O)[C@@H]1[C@@H]2[C@H](CN1C(=O)[C@@H](NC(=O)N[C@H](CN(C)c1c(C3CC3)c(=O)c1=O)C(C)(C)C)C1CCCCC1)C2(C)C)C(=O)C(=O)NCC=C (stereo partly shown) [compound 101],≤ 0.075
14,C=CCNC(=O)C(=O)C(CCC)NC(=O)[C@@H]1[C@@H]2[C@H](CN1C(=O)[C@@H](NC(=O)N[C@H](CN(C)c1c(CC)c(=O)c1=O)C(C)(C)C)C(C)(C)C)C2(C)C (stereo partly shown) [compound 144],≤ 0.075
15,C=CCNC(=O)C(=O)C(CCC)NC(=O)[C@@H]1[C@@H]2[C@H](CN1C(=O)[C@@H](NC(=O)N[C@H](CN(C)c1c(N(C)C)c(=O)c1=O)C(C)(C)C)C(C)(C)C)C2(C)C (stereo partly shown) [compound 148],≤ 0.075
16,CN(C)c1c(N(C)C[C@@H](NC(=O)N[C@H](C(=O)N2C[C@H]3[C@@H]([C@H]2C(=O)NC(CC2CCC2)C(=O)C(N)=O)C3(C)C)C(C)(C)C)C(C)(C)C)c(=O)c1=O (stereo partly shown) [compound 115],≤ 0.075
17,C=CCNC(=O)C(=O)C(CCC)NC(=O)[C@@H]1[C@@H]2[C@H](CN1C(=O)[C@@H](NC(=O)N[C@H](CN(C)c1c(C(C)(C)C)c(=O)c1=O)C(C)(C)C)C1(C)CCCCC1)C2(C)C (stereo partly shown) [compound 117],≤ 0.075
18,CN(C[C@@H](NC(=O)N[C@H](C(=O)N1C[C@H]2[C@@H]([C@H]1C(=O)NC(CCC(F)(F)F)C(=O)C(=O)NC1CC1)C2(C)C)C1(C)CCCCC1)C(C)(C)C)c1c(C(C)(C)C)c(=O)c1=O (stereo partly shown) [compound 111],≤ 0.075
19,C#CCCC(NC(=O)[C@@H]1[C@@H]2[C@H](CN1C(=O)[C@@H](NC(=O)N[C@H](CN(C)c1c(C(C)(C)C)c(=O)c1=O)C(C)(C)C)C1(C)CCCCC1)C2(C)C)C(=O)C(=O)NC1CC1 (stereo partly shown) [compound 103],≤ 0.075
20,C#CCCC(NC(=O)[C@@H]1[C@@H]2[C@H](CN1C(=O)[C@@H](NC(=O)N[C@H](CN(C)c1c(C(C)(C)C)c(=O)c1=O)C(C)(C)C)C1(C)CCCCC1)C2(C)C)C(=O)C(=O)NCC=C (stereo partly shown) [compound 107],≤ 0.075
21,CC(C)(C)c1c(NC[C@@H](NC(=O)N[C@H](C(=O)N2C[C@H]3[C@@H]([C@H]2C(=O)NC(CC2CCC2)C(=O)C(N)=O)C3(C)C)C(C)(C)C)C(C)(C)C)c(=O)c1=O (stereo partly shown) [compound 109],≤ 0.075
22,C=CCNC(=O)C(=O)C(CCCC)NC(=O)[C@@H]1[C@@H]2[C@H](CN1C(=O)[C@@H](NC(=O)N[C@H](CN(C)c1c(N(C)C)c(=O)c1=O)C(C)(C)C)C(C)(C)C)C2(C)C (stereo partly shown) [compound 135],≤ 0.075
23,C#CCCC(NC(=O)[C@@H]1[C@@H]2[C@H](CN1C(=O)[C@@H](NC(=O)N[C@H](CN(C)c1c(C3CC3)c(=O)c1=O)C(C)(C)C)C(C)(C)C)C2(C)C)C(=O)C(=O)NCC=C (stereo partly shown) [compound 122],≤ 0.075
24,C#CCCC(NC(=O)[C@@H]1[C@@H]2[C@H](CN1C(=O)[C@@H](NC(=O)N[C@H](CN(C)c1c(C(C)(C)C)c(=O)c1=O)C1CCCCC1)C1CCCCC1)C2(C)C)C(=O)C(=O)NCC=C (stereo partly shown) [compound 102],≤ 0.075
